Consider 2 substances from PMC3819392.

Protein sequences, listed by entry. Tags and fused reporters are not part of them.
UniProt P27986: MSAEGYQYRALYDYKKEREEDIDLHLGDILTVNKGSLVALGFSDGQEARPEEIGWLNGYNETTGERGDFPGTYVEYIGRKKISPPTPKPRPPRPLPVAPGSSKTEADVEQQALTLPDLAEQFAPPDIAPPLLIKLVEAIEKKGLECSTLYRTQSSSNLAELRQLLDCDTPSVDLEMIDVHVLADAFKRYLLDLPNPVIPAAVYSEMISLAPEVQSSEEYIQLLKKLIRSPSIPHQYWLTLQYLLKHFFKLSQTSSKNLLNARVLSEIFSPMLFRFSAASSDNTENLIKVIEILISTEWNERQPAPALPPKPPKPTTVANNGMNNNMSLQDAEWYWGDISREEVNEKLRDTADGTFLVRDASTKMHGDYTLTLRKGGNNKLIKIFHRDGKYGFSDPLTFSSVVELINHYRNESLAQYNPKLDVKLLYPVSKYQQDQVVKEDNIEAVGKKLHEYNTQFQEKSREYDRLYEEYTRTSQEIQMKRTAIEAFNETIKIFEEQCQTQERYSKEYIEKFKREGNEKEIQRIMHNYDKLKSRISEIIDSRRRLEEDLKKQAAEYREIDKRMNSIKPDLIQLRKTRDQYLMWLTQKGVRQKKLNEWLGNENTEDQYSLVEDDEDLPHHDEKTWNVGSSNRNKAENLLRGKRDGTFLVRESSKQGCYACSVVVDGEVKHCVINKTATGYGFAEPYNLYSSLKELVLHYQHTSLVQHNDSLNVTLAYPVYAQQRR
UniProt P42338: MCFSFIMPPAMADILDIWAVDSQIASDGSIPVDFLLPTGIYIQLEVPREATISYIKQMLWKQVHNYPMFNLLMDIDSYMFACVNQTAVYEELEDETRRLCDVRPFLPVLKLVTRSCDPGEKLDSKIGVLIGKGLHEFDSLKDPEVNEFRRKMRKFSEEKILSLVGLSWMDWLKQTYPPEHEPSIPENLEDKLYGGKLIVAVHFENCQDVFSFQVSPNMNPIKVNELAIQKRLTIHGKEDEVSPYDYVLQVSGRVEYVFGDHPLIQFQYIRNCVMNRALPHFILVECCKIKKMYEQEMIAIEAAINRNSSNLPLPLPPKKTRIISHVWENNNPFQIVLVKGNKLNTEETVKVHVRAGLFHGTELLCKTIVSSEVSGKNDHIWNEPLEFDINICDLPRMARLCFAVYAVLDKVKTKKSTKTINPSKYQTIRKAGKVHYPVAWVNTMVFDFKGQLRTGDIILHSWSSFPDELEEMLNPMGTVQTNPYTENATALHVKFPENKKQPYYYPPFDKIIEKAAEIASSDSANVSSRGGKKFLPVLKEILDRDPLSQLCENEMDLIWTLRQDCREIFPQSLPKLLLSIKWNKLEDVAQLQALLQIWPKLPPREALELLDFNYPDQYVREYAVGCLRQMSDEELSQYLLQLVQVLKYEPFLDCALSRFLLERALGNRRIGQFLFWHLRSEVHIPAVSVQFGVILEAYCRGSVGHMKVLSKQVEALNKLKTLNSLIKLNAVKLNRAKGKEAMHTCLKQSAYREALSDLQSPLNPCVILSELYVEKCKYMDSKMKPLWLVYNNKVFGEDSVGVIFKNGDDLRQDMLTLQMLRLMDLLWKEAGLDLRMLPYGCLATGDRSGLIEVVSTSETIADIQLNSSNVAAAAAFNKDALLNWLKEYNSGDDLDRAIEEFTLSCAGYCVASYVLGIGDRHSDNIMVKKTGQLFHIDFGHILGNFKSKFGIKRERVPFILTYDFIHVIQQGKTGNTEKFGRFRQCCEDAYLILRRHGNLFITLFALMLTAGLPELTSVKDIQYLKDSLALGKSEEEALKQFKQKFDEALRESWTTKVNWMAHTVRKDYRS

Results are given in words; binding and its absence hold for the method and conditions named. In cells and extracts the contact can be indirect. Some binding calls cover weakened binding; strength is not graded here.

The test deals with T1, HSP20 (HSPB6), wild-type human, overexpressed in HuH7 cells (human) (UniProt O14558).
T1 sequence: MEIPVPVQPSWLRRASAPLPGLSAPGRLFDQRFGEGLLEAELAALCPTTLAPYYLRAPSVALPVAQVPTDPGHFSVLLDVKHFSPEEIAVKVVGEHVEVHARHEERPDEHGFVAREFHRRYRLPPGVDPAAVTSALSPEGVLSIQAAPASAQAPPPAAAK
Briefly: co-IP; Lysates of HSP20-overexpressing (or empty vector) HuH7 cells in TNE buffer (10 mM Tris-HCl pH 7.8, 1% Nonidet P-40, 150 mM NaCl, 1 mM EDTA, 1 mM DTT); antibody overnight at 4°C, Dynabeads protein A; Western blot; IP with antibodies to the partner or to HSP20. On the technique in general: Immunoblotting shows a protein as a band on a membrane.

As for “PI3K p85 regulatory subunit, endogenous in HuH7 cells (from UniProt P27986 1-724)”, the binding entry is reported as “binds”. “PI3K p110β catalytic subunit, endogenous in HuH7 cells (from UniProt P42338 1-1070)”: the binding result is “binds”.
